In the supplement of paper PMC8183993:
Where a name gives a salt, the structure may show the parent alone. ± gives the standard deviation of the averaged measurements. Over roughly 3,200 compounds, “nuclei count (viability) relative to DMSO” has its median near 99; the lowest 2% begin near 16. Some of the results follow.

Tested on: U2OS
Test: nuclei count (viability) relative to DMSO (% of DMSO); higher = more viable cells
Conditions: 10 µM; 24 h
Procedure: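 Primary image-based screen in U2OS cells: compounds at 10 uM for 24 h, then a 1 h o-propargyl-puromycin (OPP) pulse, click labelling, and high-throughput microscopy. Mean cytoplasmic OPP intensity and nuclei count were normalised to DMSO wells within each plate (DMSO = 100) and averaged over triplicate plates.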

Q: With `CC(COc1ccccc1)N(CCCl)Cc1ccccc1` (stereo not drawn) [Phenoxybenzamine hydrochloride] as the compound, how does the nuclei count read?
A: The nuclei count was 106.

Q: For `Nc1ncn([C@@H]2O[C@H](CO)[C@@H](O)[C@H]2O)c(=O)n1` [Azacitidine (Vidaza)], which nuclei count is on record?
A: Its nuclei count is 68.5.

Q: For `O=C(Nc1ccc(OC(F)(F)F)cc1)c1sccc1NCc1ccnc2ccccc12`, which nuclei count is on record?
A: Its nuclei count is 74.7.

Q: How did the nuclei count turn out when `COc1cc(/C=C/C(=O)N2CCN(CC(=O)N3CCCC3)CC2)cc(OC)c1OC` [Cinepazide maleate] was run?
A: The nuclei count was 101.

Q: How did the nuclei count turn out when `CNC(=O)c1cc2c(cn1)[nH]c1ccccc12` was run?
A: Its nuclei count is 101.

Q: Which nuclei count does the source give for `Cc1cc(=O)oc2cc(O)ccc12` [Hymecromone] here?
A: The nuclei count was 95.8.

Q: For `CCOC(=O)c1ccc(OC(=O)CCCCCNC(=N)N)cc1` [Gabexate mesilate], which nuclei count is on record?
A: The nuclei count was 106.

Q: For `CCOC(=O)c1ccc(OC(=O)CCCCCNC(=N)N)cc1` [Gabexate mesylate], which nuclei count is on record?
A: Its nuclei count is 96.3.

Q: How did the nuclei count turn out when `CSc1nc(NC2CCCC2)c([N+](=O)[O-])c(NC2CCCC2)n1` was run?
A: The nuclei count was 101.

Q: With `CCCN[C@H]1CCc2nc(N)sc2C1` [Pramipexole] as the compound, how does the nuclei count read?
A: The nuclei count was 111.

Q: For `CC(C)(C)Cn1c(N)nc2ccc(-c3[nH]c(C(C)(C)C)nc3-c3ccc(F)cc3)nc21`, which nuclei count is on record?
A: The nuclei count was 78.7.

Q: `c1ccc(C2CN3CCSC3=N2)cc1` (stereo not drawn) [Tetramisole hydrochloride] was tested. Which nuclei count did it give?
A: The nuclei count was 101.

Q: For `c1ccc(C2CN3CCSC3=N2)cc1` (stereo not drawn) [Tetramisole HCl], which nuclei count is on record?
A: The nuclei count was 99.7.

Q: How did the nuclei count turn out when `C=C1c2cccc(O)c2C(=O)C2=C(O)[C@]3(O)C(=O)C(C(N)=O)=C(O)[C@@H](N(C)C)[C@@H]3[C@@H](O)[C@H]12` [Methacycline hydrochloride] was run?
A: Its nuclei count is 93.4.

Q: `Cn1c(=O)c2nc[nH]c2n(C)c1=O` [Theophylline monohydrate] was tested. Which nuclei count did it give?
A: Its nuclei count is 102.

Q: With `CNC(=O)CN(CCN(CCN(CC(=O)O)CC(=O)NC)CC(=O)O)CC(=O)O.O.[Gd]` [Gadodiamide (Omniscan)] as the compound, how does the nuclei count read?
A: Its nuclei count is 101.

Q: How did the nuclei count turn out when `Cc1scc2c1N(C(=O)CN1CCN(C)CC1)c1ccccc1NC2=O` [Telenzepine dihydrochloride] was run?
A: The nuclei count was 101 ± 1.5.

Q: How did the nuclei count turn out when `CC(C)(C)c1[nH]cnc1/C=c1\[nH]c(=O)/c(=C/c2ccccc2)[nH]c1=O` [NPI-2358 (Plinabulin)] was run?
A: Its nuclei count is 17.1.

Q: `CC(C)[C@H]1C(=O)N[C@@H](CCCNC(=N)N)C(=O)NCC(=O)N[C@@H](CC(=O)O)C(=O)N[C@H](Cc2ccccc2)C(=O)N1C` was tested. Which nuclei count did it give?
A: Its nuclei count is 105.

Q: How did the nuclei count turn out when `O=C(c1cccc(Cl)c1F)N1CCN(Cc2cccc(Nc3nccs3)n2)CC1` was run?
A: The nuclei count was 68.6.

Q: For `NC(=O)CC[C@@H](N)C(=O)O` [D-glutamine], which nuclei count is on record?
A: Its nuclei count is 98.1.

Q: Which nuclei count does the source give for `COc1cccc(NC(=O)/C=C/c2ccc(Cl)cc2)c1` here?
A: Its nuclei count is 92.9.

Q: How did the nuclei count turn out when `CC(C)(C)NC[C@H](O)COc1nsnc1N1CCOCC1` [(S)-Timolol maleate] was run?
A: Its nuclei count is 94.5.

Q: For `CC(C)(C)NC[C@H](O)COc1nsnc1N1CCOCC1` [Timolol maleate salt], which nuclei count is on record?
A: The nuclei count was 96.7.

Q: Which nuclei count does the source give for `O=C(Nc1cccc2c(=O)cc(-c3nnn[nH]3)oc12)c1ccc(OCCCCc2ccccc2)cc1` [Pranlukast] here?
A: Its nuclei count is 101 ± 4.

Q: Which nuclei count does the source give for `Cc1ccc(C(=O)Nc2ccc(CN3CCN(C)CC3)c(C(F)(F)F)c2)cc1C#Cc1cnc2cccnn12` here?
A: Its nuclei count is 16.3.

Q: How did the nuclei count turn out when `NCCCC[C@H](N[C@@H](CCc1ccccc1)C(=O)O)C(=O)N1CCC[C@H]1C(=O)O` [Lisinopril] was run?
A: The nuclei count was 105 ± 12.

Q: `COc1ccc(NC(=O)c2ccc(-c3ccc(-c4noc(C)n4)cc3C)cc2)cc1OCCN(C)C` was tested. Which nuclei count did it give?
A: Its nuclei count is 100.

Q: For `COC1=C(OC)C(=O)C(CCCCCCCCCCO)=C(C)C1=O` [Idebenone], which nuclei count is on record?
A: Its nuclei count is 96.52 ± 0.73.

Q: How did the nuclei count turn out when `O=C(Nc1c[nH]nc1-c1nc2ccc(CN3CCOCC3)cc2[nH]1)NC1CC1` was run?
A: The nuclei count was 38.9.

Q: How did the nuclei count turn out when `CCOC(=O)[C@H](CCc1ccccc1)N[C@H]1CCc2ccccc2N(CC(=O)O)C1=O` [Benazepril hydrochloride] was run?
A: The nuclei count was 114.

Q: Which nuclei count does the source give for `CCOC(=O)[C@H](CCc1ccccc1)N[C@H]1CCc2ccccc2N(CC(=O)O)C1=O` [Benazepril HCl] here?
A: The nuclei count was 102.

Q: For `CCOC(=O)OC(C)OC(=O)[C@@H]1N2C(=O)[C@@H](NC(=O)[C@H](N)c3ccccc3)[C@H]2SC1(C)C` (stereo partly drawn) [Bacampicillin hydrochloride], which nuclei count is on record?
A: The nuclei count was 91.6.

Q: With `Cc1c(C(=O)NC2CCCCC2)sc2nc3ccc(N)cc3n12` as the compound, how does the nuclei count read?
A: The nuclei count was 99.5.

Q: Which nuclei count does the source give for `CC(C)C[C@H](NC(=O)[C@H](CCc1ccccc1)NC(=O)CN1CCOCC1)C(=O)N[C@@H](Cc1ccccc1)C(=O)N[C@@H](CC(C)C)C(=O)[C@@]1(C)CO1` [Carfilzomib (PR-171)] here?
A: The nuclei count was 7.25.

Q: Which nuclei count does the source give for `O=S(=O)(c1ccccc1)c1cnc2c(N3CCNCC3)cccc2c1` here?
A: Its nuclei count is 105.

Q: How did the nuclei count turn out when `O=C(O[C@H]1CN2CCC1CC2)N1CCc2ccccc2[C@@H]1c1ccccc1` [Solifenacin succinate] was run?
A: The nuclei count was 112.

Q: With `NC(=O)N/N=C/c1ccc([N+](=O)[O-])o1` [Nitrofural] as the compound, how does the nuclei count read?
A: The nuclei count was 104.

Q: `COc1ccc(S(=O)(=O)N2c3ccc(Cl)cc3[C@](O)(c3ccccc3Cl)[C@@H]2C(=O)N2CCC[C@H]2C(N)=O)cc1OC` was tested. Which nuclei count did it give?
A: Its nuclei count is 101.

Q: For `CN1CCCCC1CCN1c2ccccc2Sc2ccc([S+](C)[O-])cc21` (stereo not drawn) [Mesoridazine besylate], which nuclei count is on record?
A: Its nuclei count is 102.

Q: `O=c1oc(-c2ccc(C(F)(F)F)cc2)nn1Cc1cc(Cl)ccc1O` was tested. Which nuclei count did it give?
A: Its nuclei count is 98.4.

Q: How did the nuclei count turn out when `CN1CCCC(n2nc(Cc3ccc(Cl)cc3)c3ccccc3c2=O)CC1` (stereo not drawn) [Azelastine HCl] was run?
A: Its nuclei count is 88.6.

Q: Which nuclei count does the source give for `CC1=CC(=O)NS(=O)(=O)O1` [Acesulfame Potassium] here?
A: Its nuclei count is 95.

Q: For `CN(C)CCC[C@@]1(c2ccc(F)cc2)OCc2cc(C#N)ccc21` [Escitalopram], which nuclei count is on record?
A: Its nuclei count is 103.

Q: With `CCCC(=O)Nc1ncnc2c1ncn2[C@@H]1O[C@@H]2COP(=O)(O)O[C@H]2[C@H]1OC(=O)CCC` [Bucladesine sodium salt] as the compound, how does the nuclei count read?
A: The nuclei count was 96.6.

Q: How did the nuclei count turn out when `CCCC(=O)Nc1ncnc2c1ncn2[C@@H]1O[C@@H]2COP(=O)(O)O[C@H]2[C@H]1OC(=O)CCC` [Dibutyryl-cAMP, sodium salt] was run?
A: The nuclei count was 109.

Q: Which nuclei count does the source give for `CCN1CCN(C(=O)N[C@@H](C(=O)N[C@@H]2C(=O)N3[C@@H]2SC(C)(C)[C@@H]3C(=O)O)c2ccccc2)C(=O)C1=O` [Piperacillin sodium salt] here?
A: The nuclei count was 97.1.

Q: Which nuclei count does the source give for `CO[C@@H]1[C@@H](OC(N)=O)[C@@H](O)[C@H](Oc2ccc3c(O)c(NC(=O)c4ccc(O)c(CC=C(C)C)c4)c(=O)oc3c2C)OC1(C)C` [Novobiocin sodium salt] here?
A: The nuclei count was 101.
